# The list shows a part of the results.
# B1: chr1:204554719:204554820:+|3pUTR|ENSG00000198625|unk|total|mutant (ssRNA)
# RNA: GGGAGUUCUACAGUCCGACGAUCAAGUACUUUCUUUUGACAGAAAUUUUCAUUCUGCUUGCCAUUGCUAUAUUCUCCCUUUACCGGAGCCAUUGGAUUUCUUUCCUUUUGUGGGAAAUGUCCCAUCCGCAUUUUCAGAUCUUUCAACAGAGGAUUGAGCAUCA
# B2: chrX:149582234:149583179:-|CDS|ENSG00000267978|control|control|control (ssRNA)
# RNA: GGGAGUUCUACAGUCCGACGAUCUCCUACAUCCUUGUCACUGCUCUUGGCCUCUCGUGCGAUAGCAUGCUGGGUGAUGGUCAUAGCAUGCCCAAGGCCGCCCUCCUGAUCAUUGUCCUGGGUGUGAUCCUAACCAAAGACAACCAACAGAGGAUUGAGCAUCA
# B3: ENSG00000070961:be:win_2351|CDS|ENSG00000070961|bound_else_gene|NA|bound_elsewhere_windowed (ssRNA)
# RNA: GGGAGUUCUACAGUCCGACGAUCCUGUCUCAGACCAACGCCAGGUUGUAGCUGUAACUGGUGAUGGUACAAAUGAUGGCCCAGCACUAAAGAAAGCAGAUGUUGGAUUUGCAAUGGGUAUUGCUGGAACUGAUGUAGCUAAAGCAACAGAGGAUUGAGCAUCA
# B4: ENSG00000136451:be:win_3501|3pUTR|ENSG00000136451|bound_else_gene|NA|bound_elsewhere_windowed (ssRNA)
# RNA: GGGAGUUCUACAGUCCGACGAUCUCCACAGUACAAAAAUGGUUUGUUUUUAAUAUGUAGAGCAUUAUGUGUGGACUACUGGAAGGACUCGUGUAGGGAAAGCCCAAGAAUGACCUUGCUGAGGCCUGGAUUGGGAGGCACAGUCAACAGAGGAUUGAGCAUCA
# B5: chr14:92131016:92131127:+|CDS|ENSG00000165934|unk|total|mutant (ssRNA)
# RNA: GGGAGUUCUACAGUCCGACGAUCACCCUUUCUGGGGUCCAAGAAGAAUCUGCCCUUUGCUAUCUUCUCCAAGUUGAUGAGUUCCGAUUUUUAUUGGACUGUGGCUGGGAUGAGCACUUUUCUAUGGAUAUUAUUGAUUCCCUGCAACAGAGGAUUGAGCAUCA
# B6: chr3:186556460:186556561:-|CDS|ENSG00000113838|unk|total|mutant (ssRNA)
# RNA: GGGAGUUCUACAGUCCGACGAUCAGAGCCAGGAAGAUCUAUCCACUUCAUGAACUUGCACUGUGGCAACCACUGCAUGCAGACCGUGGCUUCUCAAAGAUCUCUAAGACUUUCUCUUUCUACAAACUGGAAACCUGGUUGAGGCAACAGAGGAUUGAGCAUCA
# B7: chr5:93620789:93620892:-|3pUTR|ENSG00000113391|unk|total|mutant (ssRNA)
# RNA: GGGAGUUCUACAGUCCGACGAUCCAGCCCCUCAUCCGAUUGUUUUCUUCCCAGAGCCCAGGGUCGUGAUAUAUACAUCUAAACCGCGUUUUGCAUUAUUUCCCGAUGAGUGCAACUGUCAAAGCAAUAUGGGUUCACUGGUCGCAACAGAGGAUUGAGCAUCA
# B8: chr1:165910223:165910324:+|3pUTR|ENSG00000143179|unk|total|mutant (ssRNA)
# RNA: GGGAGUUCUACAGUCCGACGAUCCCAGCAUUUGGCCAACUCUGUAUCUGAACUUGAGCUUUCUAUGGAACAAACAAUGGUCUCCGUUUUUUAAGAGCCUCUGGGUCUCUGAUUCCAUGGAGAGUCAGGAGCCGAAUCCGUGGACAACAGAGGAUUGAGCAUCA
# B9: chr19:17405403:17405546:-|CDS|ENSG00000130303|unk|FALSE|unique (ssRNA)
# RNA: GGGAGUUCUACAGUCCGACGAUCUGACUAUUGCAGAGUGCCCAUGGAAGACGGGGAUAAGCGCUGUAAGCUUCUGCUGGGGAUAGGAAUUCUGGUGCUCCUGAUCAUCGUGAUUCUGGGGGUGCCCUUGAUUAUCUUCACCAUCAACAGAGGAUUGAGCAUCA
# B10: chr9:83806335:83806438:-|CDS|ENSG00000165113|unk|total|mutant (ssRNA)
# RNA: GGGAGUUCUACAGUCCGACGAUCUGGCUCUGAUUCUGAACCUGGAAAAGGUAAAGGUCGAAAUACUGGAAAGUCUCAAACUUCCGGAAGCAAGUCAACUACAAAUGAGAAAAAAAGAGAGAAAAGAAGAAAAAAGAAGGAACACAACAGAGGAUUGAGCAUCA
# B11: chrX:85861749:85861850:-|3pUTR|ENSG00000188419|msi1|total|mutant (ssRNA)
# RNA: GGGAGUUCUACAGUCCGACGAUCCUAAUUUAAAAUUUCAGAAAAUGCUAUUAAAGAAUUUUGAUUCAAGUAUUUAAACUGUUCCGUUAUGCAUGCUUCUUAUUAACCGAAAAUGAUAAUACCAUUCCGUUCCGUGAUCAGUAUCAACAGAGGAUUGAGCAUCA
# B12: chr11:57661263:57661364:+|CDS|ENSG00000172409|unk|total|mutant (ssRNA)
# RNA: GGGAGUUCUACAGUCCGACGAUCCCACCUACUGAGUGUCCGCACUGCCGAGGGUACAGAGGAGAACCUGUCCGAGACAAGUGCCGCUGGCUUCAUUGUGGUGACCAGUGUGGACCUGGAGCAUCAGGUGUUUACUGUUCUGUCCAACAGAGGAUUGAGCAUCA
# B13: chr3:9371215:9371332:+|CDS|ENSG00000134077|unk|FALSE|unique (ssRNA)
# RNA: GGGAGUUCUACAGUCCGACGAUCUGGACAAGAAGUCAAAAUCGAUCAGAGAAAUGUUAAAAAAGAGUUCACUAGCCAUGCUUUAGAUUCUCAUAUCUUAGAUUAUUAUGAAAAUCCAGCCAUCAAAGAGGAUGUAUCAACAUUCAACAGAGGAUUGAGCAUCA
# B14: chr10:126014591:126014692:-|3pUTR|ENSG00000148848|msi1|total|mutant (ssRNA)
# RNA: GGGAGUUCUACAGUCCGACGAUCAAAGGUUUGUCUCCUGAAAUUUUUUAAGUUUGUUUUCCUGACACAUGUAAUCAGAUGUGCCGCAACCGAGGGAAACGAAGCCUAACAUUCUCCAUUGUGGAAAUACACACAGGAGGUUACCAACAGAGGAUUGAGCAUCA
# Molecular target: T1, UNK ZnF1-6 (called full-length) (human, UniProt Q9C0B0 30-357)
# T1 sequence: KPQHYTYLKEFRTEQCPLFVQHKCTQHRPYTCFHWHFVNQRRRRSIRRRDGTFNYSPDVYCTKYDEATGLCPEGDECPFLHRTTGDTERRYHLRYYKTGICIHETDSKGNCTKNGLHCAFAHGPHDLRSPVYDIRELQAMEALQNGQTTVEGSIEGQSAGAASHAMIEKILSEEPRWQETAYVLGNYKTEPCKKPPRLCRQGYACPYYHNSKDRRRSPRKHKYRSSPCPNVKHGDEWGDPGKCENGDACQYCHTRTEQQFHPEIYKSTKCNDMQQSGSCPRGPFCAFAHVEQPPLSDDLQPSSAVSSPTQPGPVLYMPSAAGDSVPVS
# Experiment: nsRBNS (natural sequence RNA bind-n-seq); RBNS binding buffer (assumed for nsRBNS): 25 mM Tris pH 7.5, 150 mM KCl, 3 mM MgCl2, 0.01% Triton X-100, 500 ug/ml BSA, 20 U/ml SUPERase-In, 4 C; UNK is unkempt and MSI1 is Musashi-1; names of the RNAs are library labels; protein concentration not given here; high values mean tight binding
row,Binder,binding signal [enrichment R]
1,B1,0.352
2,B2,0.664
3,B3,0.509
4,B4,0.591
5,B5,0.429
6,B6,0.525
7,B7,0.615
8,B8,0.546
9,B9,0.856
10,B10,0.665
11,B11,0.403
12,B12,0.526
13,B13,1.15
14,B14,0.415

# From article PMC12136788
